Test results published in the RNAGym collection of RNA variant scans (doi:10.7554/elife.90254).
Read counts are not given, so values of variants with three or more changes are uncertain.

B1: LINE1-mini (parent)
chain: GGCAGAGCUCAACACAGCGUGGCAAAGUGGCUGUGGCUAGACUGCC

Variants of: B1
Experiment: self-cleavage, relative activity (ratio to wild type); higher = more cleavage; in vitro, sequencing; the parent is a self-cleaving ribozyme
Work on C3U C8G G40U yielded a self-cleavage of 0.04.
With C3U G19A G27A C42U the self-cleavage was 0.05.
Work on C3U C15G A26U G30A yielded a self-cleavage of 0.02.
C3U C13A G30U C46A showed a self-cleavage of 0.05.
C3U C13G G21C U38A showed a self-cleavage of 0.06.
C3U C31A C42G gave a self-cleavage of 0.07.
With C3U C8A C10G C31G G33U the self-cleavage was 0.02.
C3U C18A G36A C46A showed a self-cleavage of 0.04.
With C3U G5A C15U G30A U43A the self-cleavage was 0.1.
With C3U G19C C37A A41G C45G the self-cleavage was 0.01.
With C3U A16G U20C A24C U34C A39U U43G the self-cleavage was 0.
Work on C3U C13U C15G A16C C18U A25C yielded a self-cleavage of 0.11.
C3U G5C U43A gave a self-cleavage of 0.11.
With C3U C13A A16U C23G G27C G33C G44C the self-cleavage was 0.02.
Work on C3U A12G G17C yielded a self-cleavage of 0.03.
With C3U C18U U43G the self-cleavage was 0.06.
C3U A12G A16G showed a self-cleavage of 0.08.
For C3U G27U G40U, the self-cleavage was 0.03.
C3U G19U C37G showed a self-cleavage of 0.03.
With C3U C18G C23A G27A the self-cleavage was 1.14.
For C3U C18G A26C G35C C37U, the self-cleavage was 0.03.
Work on C3U G7A C8A C18U A26G U32C U38G yielded a self-cleavage of 0.28.
C3U G19C C37G C42G gave a self-cleavage of 0.01.
C3U C23U G40A gave a self-cleavage of 0.19.
C3U G17A C42A gave a self-cleavage of 0.07.
With C3U A12U U38A A39G G40C C45G the self-cleavage was 0.03.
In the case of C3U C15U C18U G33U, the self-cleavage is reported as 0.14.
C3U G5U C13A C31U G33C C45G showed a self-cleavage of 0.07.
Work on C3U A12G C15U G19U A26G U43G yielded a self-cleavage of 0.
With C3U C10A C31A U32A C45A the self-cleavage was 0.03.
Work on C3U G5A G7U A25G G36U yielded a self-cleavage of 0.03.
In the case of C3U G5C G7U C10U G22A C31A U32G, the self-cleavage is reported as 0.03.
For C3U C10A A16G A25U C31U U34A G44U, the self-cleavage was 0.01.
For C3U C8A A12U G17A A26G, the self-cleavage was 0.07.
With C3U G5C C18G U20G U32C A39G the self-cleavage was 0.02.
With C3U C23U U34G G36U A39G G44U the self-cleavage was 0.07.
C3U G5U A11U U28G showed a self-cleavage of 0.02.
Work on C3U G7C C10U C37U G40A yielded a self-cleavage of 0.05.
Variant C3U A14C U43C has a self-cleavage of 0.01.
For C3U C18A U34C, the self-cleavage was 0.07.
For C3U A24G U28G G29A G44C, the self-cleavage was 0.15.
For C3U G7U C46G, the self-cleavage was 0.04.
For C3U G19U G21U G33A, the self-cleavage was 0.14.
For C3U G5U U20C G36U, the self-cleavage was 0.13.
Variant C3U G19A U28G G30A C31G G35C G36A C42A U43A has a self-cleavage of 0.03.
C3U G19A G30U A41C gave a self-cleavage of 0.09.
In the case of C3U G7U U9C U32A, the self-cleavage is reported as 0.02.
For C3U A16G G19U G21A A24U C42G, the self-cleavage was 0.25.
With C3U G17A C18A U20A G30U C46A the self-cleavage was 0.02.
Variant C3U C8U A12U C13A has a self-cleavage of 0.06.
For C3U C10G G17A G27C G35U, the self-cleavage was 0.04.
In the case of C3U G19U U34C U38C A41C C45A, the self-cleavage is reported as 0.03.
Variant C3U A14C A26G G29C U32A C42G C45A has a self-cleavage of 0.01.
C3U A16C G33U U38A C42A gave a self-cleavage of 0.06.
C3U G5U U20G A25G G30C G33C gave a self-cleavage of 0.04.
C3U G19C C37G showed a self-cleavage of 0.
In the case of C3U G19C C37A, the self-cleavage is reported as 0.01.
Work on C3U G19C C37U yielded a self-cleavage of 0.03.
For C3U C13A U28C U43C, the self-cleavage was 0.03.
With C3U A16G G33C the self-cleavage was 0.
C3U A16C A24C A25U U34C showed a self-cleavage of 0.02.
C3U A14G A24G gave a self-cleavage of 0.13.
With C3U C8A C18G G22C G27A U32G the self-cleavage was 0.06.
C3U G22U C37A U38G gave a self-cleavage of 0.02.
With C3U G17C U28A U32C U34A U38G C42A the self-cleavage was 0.03.
With C3U G19A A41G the self-cleavage was 0.18.
C3U G5A U38G A39U showed a self-cleavage of 0.62.
For C3U C13A C18U G36C G40C G44A, the self-cleavage was 0.05.
With C3U G22U C37G A41C the self-cleavage was 0.02.
For C3U C23A C37U A41G, the self-cleavage was 0.
C3U G5U G27A G40A gave a self-cleavage of 0.01.
C3U C15U G17A A41C gave a self-cleavage of 0.07.
C3U C8A G35U G36U gave a self-cleavage of 0.5.
C3U A12U A39G showed a self-cleavage of 0.02.
Work on C3U C13G A24U G29C C31G G40U C45A yielded a self-cleavage of 0.01.
With C3U C10A G19C C42A the self-cleavage was 0.04.
C3U C13A C18U G27U showed a self-cleavage of 0.04.
For C3U G7U G36A, the self-cleavage was 0.82.
C3U C10U U20A showed a self-cleavage of 0.1.
Work on C3U G5C G29C U32G G33U yielded a self-cleavage of 0.04.
In the case of C3U G17A A26U, the self-cleavage is reported as 0.08.
C3U A24G A25U C45U showed a self-cleavage of 0.06.
C3U C13G A26C G30A showed a self-cleavage of 0.08.
Work on C3U G19U G36C C42U G44A yielded a self-cleavage of 0.07.
For C3U A14G C23U U38A, the self-cleavage was 0.
Work on C3U C18A C37A yielded a self-cleavage of 0.07.
C3U C10U A11C C37U gave a self-cleavage of 0.04.
C3U A14G G40U U43C gave a self-cleavage of 0.
C3U C15A C23U A25G G30U gave a self-cleavage of 0.11.
C3U C31U C46A showed a self-cleavage of 0.
With C3U G5C C8U G21A C45A the self-cleavage was 0.04.
In the case of C3U G5U C8A U28C G35A C45U, the self-cleavage is reported as 0.21.
C3U C15U A16C A26U A39G C42U showed a self-cleavage of 0.02.
In the case of C3U C8G A11U C18G G44A, the self-cleavage is reported as 0.01.
In the case of C3U C10A A39C, the self-cleavage is reported as 0.05.
In the case of C3U A16C C31U, the self-cleavage is reported as 0.06.
In the case of C3U C37U G40U, the self-cleavage is reported as 0.58.
With C3U C10U A24U the self-cleavage was 0.13.
In the case of C3U A14G A24G A26G, the self-cleavage is reported as 0.46.
In the case of C3U G17A C37A, the self-cleavage is reported as 0.07.
Variant C3U C10A A26G has a self-cleavage of 0.05.
C3U G22U A24G G30A gave a self-cleavage of 0.73.
C3U A26C U28C A39G C42A showed a self-cleavage of 0.01.
For C3U G5C C10U U20A, the self-cleavage was 0.14.
Variant C3U A12G C31G has a self-cleavage of 0.13.
C3U G27C G29U gave a self-cleavage of 0.12.
With C3U C15G U38G A41G G44U the self-cleavage was 0.01.
C3U C18U G19C G21C G27A G33U G36C showed a self-cleavage of 0.1.
With C3U G5C G19U the self-cleavage was 0.56.
With C3U C10U A24G A39U the self-cleavage was 0.11.
C3U G19A U38A gave a self-cleavage of 0.16.
C3U C8U C15A C18A U32G U38C C42A gave a self-cleavage of 0.16.
With C3U C8G G27U the self-cleavage was 0.08.
Work on C3U C10A G21U G35C U43G yielded a self-cleavage of 0.01.
Variant C3U G7C A14G C23G G44C has a self-cleavage of 0.09.
With C3U A26C G27C the self-cleavage was 0.18.
C3U C10G C23A U34A gave a self-cleavage of 0.04.
With C3U G17U U32C G44A the self-cleavage was 0.54.
For C3U C15A A25C, the self-cleavage was 0.08.
Work on C3U G5U A6U C42G yielded a self-cleavage of 0.08.
Work on C3U G7C U20G A26U G30U A41C yielded a self-cleavage of 0.02.
With C3U G19C G40A U43C the self-cleavage was 0.02.
With C3U C8U G21U G40C the self-cleavage was 0.09.
C3U G19U A41U C42A G44U showed a self-cleavage of 0.22.
With C3U C10U A11U G40C C46U the self-cleavage was 0.
In the case of C3U G5A C10A U43C C45A, the self-cleavage is reported as 0.15.
For C3U G5U C13U C23A U28C, the self-cleavage was 0.05.
In the case of C3U G5C G35U C42U, the self-cleavage is reported as 0.01.
Variant C3U G19A G21U has a self-cleavage of 0.18.
With C3U A41U C42A the self-cleavage was 0.17.
C3U G17A G21U G27C C45A showed a self-cleavage of 0.04.
In the case of C3U A26C C37A, the self-cleavage is reported as 0.11.
C3U A12U G21A showed a self-cleavage of 0.53.
For C3U A16U C23A A25G A26G G33U A39U, the self-cleavage was 0.03.
Work on C3U G5A A12G C15A G22C yielded a self-cleavage of 0.03.
C3U G21U G35C C46U showed a self-cleavage of 0.27.
Work on C3U G17C U20A G22A G35C A41C yielded a self-cleavage of 0.03.
C3U C10A C18U showed a self-cleavage of 0.
Variant C3U A14G C42U has a self-cleavage of 0.04.
For C3U G5U G7A A16U G21C, the self-cleavage was 0.06.
With C3U C18U C31A the self-cleavage was 0.02.
C3U C37A C42U gave a self-cleavage of 0.09.
In the case of C3U C10G G21A A24C A25U G44C, the self-cleavage is reported as 0.12.
Work on C3U C15A C42G yielded a self-cleavage of 0.15.
With C3U C8U C45U the self-cleavage was 0.34.
In the case of C3U A25G A26C U28C, the self-cleavage is reported as 0.11.
For C3U A14G C45G, the self-cleavage was 0.11.
C3U G19A U34A gave a self-cleavage of 0.03.
In the case of C3U G29A C31U G40U, the self-cleavage is reported as 0.01.
C3U A14U G27C showed a self-cleavage of 0.
In the case of C3U G7A C8G G17A G22C C23A A41C, the self-cleavage is reported as 0.06.
In the case of C3U C8U C23A C42U, the self-cleavage is reported as 0.53.
C3U G17C G40U showed a self-cleavage of 0.14.
For C3U G17C G40C, the self-cleavage was 0.09.
C3U C10G A26U showed a self-cleavage of 0.03.
C3U G7U G33U C37A gave a self-cleavage of 0.03.
C3U A26U G35C A41U gave a self-cleavage of 0.1.
For C3U A26G U34G, the self-cleavage was 0.11.
For C3U C18A G22C A26C, the self-cleavage was 0.14.
C3U G5U G19A G35C C42U gave a self-cleavage of 0.05.
C3U C8U A14C C23U gave a self-cleavage of 0.12.
Variant C3U C18A C42A has a self-cleavage of 0.02.
Variant C3U G29A A41C has a self-cleavage of 0.08.
Variant C3U C15U G33C has a self-cleavage of 0.01.
Variant C3U A26C G29U G35A U38A has a self-cleavage of 0.03.
With C3U A24C A26U G44U the self-cleavage was 0.07.
Variant C3U C8A A14G G17C C23A has a self-cleavage of 0.23.
